# Experimental data published in publication PMC9911399.
# This is one part of the list.
# Target: T1, RBFOX1 RRM (Homo sapiens) (UniProt Q9NWB1)
# T1 sequence: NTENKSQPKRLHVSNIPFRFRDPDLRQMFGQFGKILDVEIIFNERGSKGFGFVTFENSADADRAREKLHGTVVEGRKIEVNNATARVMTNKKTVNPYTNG
# Assay: EMSA
# Conditions: HiTS-Eq, 1 nM pool, 10 min; buffer printed only for the single-RNA assays: 10 mM Tris pH 7.5, 150 mM NaCl, 3.4 mM EDTA, 0.001% NP-40, 30 C
row,Sequence,binding signal (KA relative to UGCAUGU)
1,GGGAGACCGGAAUUCAGAUUGUCCCCCCCGAUUAAAUCCCGUCGUAGCCACCA / CAATCTGAATTCCGGTCTCCC / TGGTGGCTACGACGGGATT,0.00922
2,GGGAGACCGGAAUUCAGAUUGUCCCCCCACUUUAAAUCCCGUCGUAGCCACCA / CAATCTGAATTCCGGTCTCCC / TGGTGGCTACGACGGGATT,0.000187
3,GGGAGACCGGAAUUCAGAUUGUCCCCCCCACUUAAAUCCCGUCGUAGCCACCA / CAATCTGAATTCCGGTCTCCC / TGGTGGCTACGACGGGATT,0.0114
4,GGGAGACCGGAAUUCAGAUUGUCCGUUCUCCUUAAAUCCCGUCGUAGCCACCA / CAATCTGAATTCCGGTCTCCC / TGGTGGCTACGACGGGATT,0.0205
5,GGGAGACCGGAAUUCAGAUUGUCCUCCCAGAUUAAAUCCCGUCGUAGCCACCA / CAATCTGAATTCCGGTCTCCC / TGGTGGCTACGACGGGATT,0.00658
6,GGGAGACCGGAAUUCAGAUUGUCCCCCACAUUUAAAUCCCGUCGUAGCCACCA / CAATCTGAATTCCGGTCTCCC / TGGTGGCTACGACGGGATT,0.00553
7,GGGAGACCGGAAUUCAGAUUGUCCUCCCAAAUUAAAUCCCGUCGUAGCCACCA / CAATCTGAATTCCGGTCTCCC / TGGTGGCTACGACGGGATT,0.00175
8,GGGAGACCGGAAUUCAGAUUGUCCCCCAGACUUAAAUCCCGUCGUAGCCACCA / CAATCTGAATTCCGGTCTCCC / TGGTGGCTACGACGGGATT,0.00439
9,GGGAGACCGGAAUUCAGAUUGUCCCCCCUCAUUAAAUCCCGUCGUAGCCACCA / CAATCTGAATTCCGGTCTCCC / TGGTGGCTACGACGGGATT,0.00496
10,GGGAGACCGGAAUUCAGAUUGUCCUCCCUACUUAAAUCCCGUCGUAGCCACCA / CAATCTGAATTCCGGTCTCCC / TGGTGGCTACGACGGGATT,0.00055
11,GGGAGACCGGAAUUCAGAUUGUCCUCCCGCCUUAAAUCCCGUCGUAGCCACCA / CAATCTGAATTCCGGTCTCCC / TGGTGGCTACGACGGGATT,0.011
12,GGGAGACCGGAAUUCAGAUUGUCCUCCGGUCUUAAAUCCCGUCGUAGCCACCA / CAATCTGAATTCCGGTCTCCC / TGGTGGCTACGACGGGATT,0.00749
13,GGGAGACCGGAAUUCAGAUUGUCCCCCUCCCUUAAAUCCCGUCGUAGCCACCA / CAATCTGAATTCCGGTCTCCC / TGGTGGCTACGACGGGATT,0.00751
14,GGGAGACCGGAAUUCAGAUUGUCCGGUCCGGUUAAAUCCCGUCGUAGCCACCA / CAATCTGAATTCCGGTCTCCC / TGGTGGCTACGACGGGATT,0.027
15,GGGAGACCGGAAUUCAGAUUGUCCCCCAUUCUUAAAUCCCGUCGUAGCCACCA / CAATCTGAATTCCGGTCTCCC / TGGTGGCTACGACGGGATT,0.00456
16,GGGAGACCGGAAUUCAGAUUGUCCCCCCAUAUUAAAUCCCGUCGUAGCCACCA / CAATCTGAATTCCGGTCTCCC / TGGTGGCTACGACGGGATT,0.000342
17,GGGAGACCGGAAUUCAGAUUGUCCCGGUCUCUUAAAUCCCGUCGUAGCCACCA / CAATCTGAATTCCGGTCTCCC / TGGTGGCTACGACGGGATT,0.0321
18,GGGAGACCGGAAUUCAGAUUGUCCUCCCCUAUUAAAUCCCGUCGUAGCCACCA / CAATCTGAATTCCGGTCTCCC / TGGTGGCTACGACGGGATT,0.00209
19,GGGAGACCGGAAUUCAGAUUGUCCCCCAAUCUUAAAUCCCGUCGUAGCCACCA / CAATCTGAATTCCGGTCTCCC / TGGTGGCTACGACGGGATT,0.000456

row,Sequence,binding signal (KA relative to UGCAUGU)
1,GGGAGACCGGAAUUCAGAUUGUCCCCCCCGCUUAAAUCCCGUCGUAGCCACCA / CAATCTGAATTCCGGTCTCCC / TGGTGGCTACGACGGGATT,0.000216
2,GGGAGACCGGAAUUCAGAUUGUCCGGGUCUCUUAAAUCCCGUCGUAGCCACCA / CAATCTGAATTCCGGTCTCCC / TGGTGGCTACGACGGGATT,0.0231
3,GGGAGACCGGAAUUCAGAUUGUCCGGUGCCCUUAAAUCCCGUCGUAGCCACCA / CAATCTGAATTCCGGTCTCCC / TGGTGGCTACGACGGGATT,0.0104
4,GGGAGACCGGAAUUCAGAUUGUCCGGUCCCAUUAAAUCCCGUCGUAGCCACCA / CAATCTGAATTCCGGTCTCCC / TGGTGGCTACGACGGGATT,0.00232
5,GGGAGACCGGAAUUCAGAUUGUCCCCCACCGUUAAAUCCCGUCGUAGCCACCA / CAATCTGAATTCCGGTCTCCC / TGGTGGCTACGACGGGATT,0.00705
6,GGGAGACCGGAAUUCAGAUUGUCCUCCCUAAUUAAAUCCCGUCGUAGCCACCA / CAATCTGAATTCCGGTCTCCC / TGGTGGCTACGACGGGATT,0.00677
7,GGGAGACCGGAAUUCAGAUUGUCCGGUCUCGUUAAAUCCCGUCGUAGCCACCA / CAATCTGAATTCCGGTCTCCC / TGGTGGCTACGACGGGATT,0.0151
8,GGGAGACCGGAAUUCAGAUUGUCCUCCCGAAUUAAAUCCCGUCGUAGCCACCA / CAATCTGAATTCCGGTCTCCC / TGGTGGCTACGACGGGATT,0.0168
9,GGGAGACCGGAAUUCAGAUUGUCCCCCAAAAUUAAAUCCCGUCGUAGCCACCA / CAATCTGAATTCCGGTCTCCC / TGGTGGCTACGACGGGATT,0.0055
10,GGGAGACCGGAAUUCAGAUUGUCCCCGGUCAUUAAAUCCCGUCGUAGCCACCA / CAATCTGAATTCCGGTCTCCC / TGGTGGCTACGACGGGATT,0.00923
11,GGGAGACCGGAAUUCAGAUUGUCCGGAUCCCUUAAAUCCCGUCGUAGCCACCA / CAATCTGAATTCCGGTCTCCC / TGGTGGCTACGACGGGATT,0.00477
12,GGGAGACCGGAAUUCAGAUUGUCCUCCCCACUUAAAUCCCGUCGUAGCCACCA / CAATCTGAATTCCGGTCTCCC / TGGTGGCTACGACGGGATT,0.0143
13,GGGAGACCGGAAUUCAGAUUGUCCGGUCAACUUAAAUCCCGUCGUAGCCACCA / CAATCTGAATTCCGGTCTCCC / TGGTGGCTACGACGGGATT,0.00281
14,GGGAGACCGGAAUUCAGAUUGUCCCCCCUAAUUAAAUCCCGUCGUAGCCACCA / CAATCTGAATTCCGGTCTCCC / TGGTGGCTACGACGGGATT,0.000185
15,GGGAGACCGGAAUUCAGAUUGUCCGGUGUCCUUAAAUCCCGUCGUAGCCACCA / CAATCTGAATTCCGGTCTCCC / TGGTGGCTACGACGGGATT,0.00504
16,GGGAGACCGGAAUUCAGAUUGUCCUCCCCCAUUAAAUCCCGUCGUAGCCACCA / CAATCTGAATTCCGGTCTCCC / TGGTGGCTACGACGGGATT,0.000355
17,GGGAGACCGGAAUUCAGAUUGUCCUCCCGGAUUAAAUCCCGUCGUAGCCACCA / CAATCTGAATTCCGGTCTCCC / TGGTGGCTACGACGGGATT,0.0123
18,GGGAGACCGGAAUUCAGAUUGUCCCCCAUCCUUAAAUCCCGUCGUAGCCACCA / CAATCTGAATTCCGGTCTCCC / TGGTGGCTACGACGGGATT,0.0092
19,GGGAGACCGGAAUUCAGAUUGUCCCCCCGGUUUAAAUCCCGUCGUAGCCACCA / CAATCTGAATTCCGGTCTCCC / TGGTGGCTACGACGGGATT,0.0165
